Test results: PubChem BioAssay AID1671194 (National Center for Advancing Translational Sciences (NCATS), 2021)
Among all 140,000 compounds or so, about 240 (0.17%) were called active. The inconclusive results got no clear call from the source; some entries with a clear call stand among them for comparison. Calls come from the whole dose curve; as a rule, active = well fitted inhibition curve with a large enough effect; inconclusive = small, poorly fitted or top-dose-only effect; inactive = no such curve, though single readings can be large or run the other way. Potencies beside an inconclusive call are fits to weak or partial responses and may not hold up.

experiment: Primary qHTS assay for inhibitors of alpha-synuclein gene (SNCA) expression; conditions: HEK-293 SNCA-luciferase knock-in, luminescence, 24 h; series mostly up to 57.2 µM; note: nearly all actives have a fitted effect of over 45% in size
Potency is the fitted concentration of half-maximal effect; tags give direction and shape of the fitted curve.

Row | SMILES | Potency
1 | CCc1ccccc1-n1c(SCC(=O)Nc2ccc(C)cc2)nc2n[nH]c(C)c2c1=N | inconclusive: 15.8 µM [inhibitor, partial curve, poor fit]
2 | O=C(c1ccoc1)N1CCC(Oc2cccnc2)C1 (stereo unspecified) | inconclusive: 3.98 µM [inhibitor, single point]
3 | COc1cccc(-c2cc(C3CCN(C(=O)Nc4cccc(F)c4)CC3)[nH]n2)c1 | inconclusive: 35.5 µM [inhibitor, partial curve, poor fit]
4 | O=S(=O)(N[C@H]1[C@H](O)[C@H](O)C[C@@H]1c1ccc(C(F)(F)F)cc1)c1ccc(F)cc1 | inactive
5 | COc1ccc(Cl)cc1NC(=O)CSc1nc(-c2cccs2)cc(C(F)(F)F)n1 | inconclusive: 0.178 µM [inhibitor, partial curve, poor fit]
6 | CCO[C@H]1CN(C(=O)C2(c3ccc(OC)c(OC)c3)CCCC2)C[C@@H]1O | inactive
7 | COCCN1CC(CO)C2(CCN(Cc3cc(F)ccc3F)CC2)C1 (stereo unspecified) | inconclusive: 39.8 µM [inhibitor, single point]
8 | Cc1ccc(CN2CCC(Cn3c(C)cnc3-c3cccnc3)CC2)s1 | inconclusive: 6.31 µM [inhibitor, single point]
9 | CSc1ccc(CCNC(=O)c2c(C)nn(-c3ccc(F)cc3)c2-n2cccc2)cc1 | inconclusive: 7.08 µM [inhibitor, single point]
10 | O=C(C1CCCN1C(=O)Nc1ccc(Cl)cc1)N1CCC(N2Cc3ccccc3C2=O)CC1 (stereo unspecified) | inconclusive: 3.98 µM [inhibitor, single point]
11 | CC1CCCCN1CCCNC(=O)c1ccc2c(c1)sc1nc(-c3ccc(F)cc3)cn12 (stereo unspecified) | inconclusive: 39.8 µM [inhibitor, single point]
12 | COc1ccc(C(=O)N2CCC3(CC2)CCN(Cc2cccs2)c2ccccc2O3)cc1 | inconclusive: 20 µM [inhibitor, single point]
13 | COc1cccc(C2=C(C(C)=O)Sc3nnc(C4CCCCC4)n3N2C(C)=O)c1 | inconclusive: 39.8 µM [inhibitor, single point]
14 | COc1ccc(C(=O)N2CCN(C(=O)c3nnn4c3COC(c3ccc(F)cc3)C4)CC2)cc1 (stereo unspecified) | inconclusive: 8.91 µM [inhibitor, full curve, poor fit]
15 | Cc1cc(C)cc(NC(=O)Cn2nnc(C(=O)NCc3ccccc3Cl)c2N)c1 | inconclusive: 5.01 µM [inhibitor, full curve, poor fit]
16 | COC(=O)c1ccccc1NC(=O)O[C@@H]1CO[C@H]2[C@@H]1OC[C@@H]2Nc1nccc(-c2ccc3c(c2)OCO3)n1 | inactive
17 | O=C(c1ccc(CNc2nccc(-c3cccnc3)n2)cc1)N1CCCCC1 | inactive
18 | CCOC(=O)c1noc2ncnc(N3CCN(c4cccc(Cl)c4)CC3)c12 | inconclusive: 39.8 µM [inhibitor, single point]
19 | CCOC(=O)N1CCc2c(sc3c2c(=O)n(-c2ccc(Cl)cc2)c(=O)n3Cc2cccc(OC)c2)C1 | inconclusive: 17.8 µM [inhibitor, partial curve, poor fit]
20 | Cc1noc2c(NCCN(C)C)cc(-c3ccccn3)nc12 | inactive
21 | Cc1ccc(CN2CCCC(C(=O)N3CCN(c4ccccn4)CC3)CCNC(=O)CC2)s1 (stereo unspecified) | inactive

Row | SMILES | Potency
22 | O=C(Cc1c[nH]c2ccccc12)N1CCC(c2nc(CCOCC3CCCC3)no2)C1 (stereo unspecified) | active: 20 µM
23 | O=S(=O)(c1ccc2[nH]c3c(c2c1)CCCC3)N1CCN(c2cccc(C(F)(F)F)c2)CC1 | inconclusive: 39.8 µM [inhibitor, single point]
24 | CS(=O)(=O)N1CCCN(C(=O)c2ccccc2C2CCNC2)CC1 (stereo unspecified) | inactive
25 | OCC1(CCCc2ccccc2)CCN(Cc2cccc3c2OCO3)CC1 | inactive
26 | CCC(=O)Nc1ccccc1-c1nc2ccccc2n(C(C)C(=O)Nc2cccc(Cl)c2C)c1=O (stereo unspecified) | inconclusive: 39.8 µM [inhibitor, single point]
27 | Cc1cc(C)cc(-n2ccnc2SCC(=O)Nc2ccc(C)cc2C)c1 | inconclusive: 20 µM [inhibitor, single point]
28 | CC1(Cc2ccc3c(c2)OCO3)CCCN(C(=O)N2CCOCC2)C1 (stereo unspecified) | inconclusive: 3.55 µM [inhibitor, full curve]
29 | CN(Cc1ccco1)c1ncncc1-c1cccc(C#N)c1 | inconclusive: 10 µM [inhibitor, partial curve, poor fit]
30 | CCc1ccc(NC(=O)CN2CCSc3ccc(S(=O)(=O)N4CCCC4)cc32)cc1 | inconclusive: 7.08 µM [inhibitor, full curve, poor fit]
31 | Cc1ccc(F)cc1NC(=O)c1ccc(Cn2nc(N3CCN(c4ccccc4)CC3)ccc2=O)o1 | inconclusive: 39.8 µM [inhibitor, partial curve, poor fit]
32 | Cc1noc2c(NCC3CCOCC3)cc(-c3ccc(Cl)cc3)nc12 | inactive
33 | C[C@H]1[C@@H]2[C@H]3OC(=O)[C@@H](C)[C@@H]3CC[C@@]2(C)CC[C@@H]1NC(=O)c1ccncc1 | inactive
34 | CNC(=O)c1cc[nH]c1C1CCCN(C(=O)Cn2c(=O)oc3ccccc32)C1 (stereo unspecified) | inactive
35 | COc1ccc(CN2C(=O)[C@@H]3C[C@@H](O)CN3C3(CN(Cc4cccnc4)C3)C2=O)cc1 | inconclusive: 7.08 µM [inhibitor, single point]
36 | Cc1cccc(C(=O)Nc2cccc(-c3ccc(N4CCN(C)CC4)nn3)c2)c1 | inactive
37 | Cc1oc(-c2ccc(C(=O)NCCc3ccc(Cl)cc3)cc2)nc1CSc1ccccc1 | inconclusive: 0.631 µM [inhibitor, partial curve, poor fit]
38 | Cn1ncc2c(C(=O)N3CCN(Cc4ccccc4)CC3)cc(-c3ccc(Cl)cc3)nc21 | inconclusive: 31.6 µM [inhibitor, single point]
39 | COc1cc2ncnc(Nc3ccc(F)c(Cl)c3)c2cc1OCCCN1CCOCC1 | inconclusive: 24.8 µM [inhibitor, full curve]
40 | Cc1cc(C)n(CCC(=O)N2c3ccccc3CC2c2noc(C3CCOCC3)n2)n1 (stereo unspecified) | inactive
41 | CCNC(=O)O[C@@H]1CO[C@H]2[C@@H]1OC[C@@H]2NC(=O)c1ccccn1 | inconclusive: 10 µM [inhibitor, partial curve, poor fit]
